Results published in the supplement of paper PMC9446081.
In all, about 39,000 compounds went through this assay and about 220 (0.56%) showed activity. This is one part of the list.

What follows are compounds tested on Escherichia coli K-12 BW25113 (assay: relative growth (OD600 normalised to plate interquartile mean) (fraction); higher = less growth inhibition, active = 0.2 or less). Details: 50 µM; LB; incubation time: overnight (16-24 h).
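Also: static incubation at 37 °C against the wild-type strain, values averaged over two biological replicates.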

For `C[C@@H]1CN([C@@H](C)CO)C(=O)Cc2cc(NS(C)(=O)=O)ccc2O[C@@H]1CN(C)Cc1ccc(C(=O)O)cc1`, which relative growth is on record?
Its relative growth is inactive: 0.921.

How did the relative growth turn out when `Cc1ccc(-c2csc(-c3ccc(CN)cc3)n2)cc1` was run?
Its relative growth is inactive: 0.97.

With `CCCC(=O)Nc1ccc2c(c1)OC[C@@H](C)N(C(=O)Cc1cccnc1)C[C@@H](C)[C@H](OC)CN(C)C2=O` as the compound, how does the relative growth read?
Its relative growth is inactive: 1.02.

For `C[C@H]1CN([C@@H](C)CO)C(=O)c2ccccc2-c2ccccc2CO[C@@H]1CN(C)C(=O)Nc1cccc(Cl)c1Cl`, which relative growth is on record?
The relative growth was inactive: 1.

How did the relative growth turn out when `CCCN(C)C[C@H]1OCCCC[C@@H](C)Oc2ccc(NC(=O)Nc3c(C)noc3C)cc2C(=O)N([C@H](C)CO)C[C@@H]1C` was run?
Its relative growth is inactive: 1.01.

How did the relative growth turn out when `COc1ccc(-c2cc(=O)c3c(OC)cc(OC)cc3o2)cc1` was run?
Its relative growth is inactive: 1.08.

`C[C@@H]1CN([C@H](C)CO)C(=O)c2cccc(NS(=O)(=O)c3ccc(Cl)cc3)c2O[C@@H]1CN(C)C(=O)Nc1ccc(C(F)(F)F)cc1` was tested. Which relative growth did it give?
Its relative growth is inactive: 0.99.

For `CCN1[C@H](C(=O)NCCc2cn(C)cn2)[C@@H](CO)[C@@H]2Cn3c(ccc(-c4cccnc4)c3=O)[C@@H]21`, which relative growth is on record?
The relative growth was inactive: 1.02.

How did the relative growth turn out when `C[C@@H]1CCCCO[C@H](CN(C)C(=O)Nc2cccc3ccccc23)[C@@H](C)CN([C@H](C)CO)C(=O)c2cc(NS(=O)(=O)c3ccc(Cl)cc3)ccc2O1` was run?
The relative growth was inactive: 1.03.

With `COc1ccc(NC(=O)Nc2ccc3c(c2)C(=O)N([C@@H](C)CO)C[C@@H](C)[C@@H](CN(C)C(=O)Cc2ccccc2)OCCCC[C@H](C)O3)cc1` as the compound, how does the relative growth read?
The relative growth was inactive: 0.991.

With `Cc1ccc(S(=O)(=O)N2C[C@H](O)COC[C@H]3O[C@H](CC(=O)N[C@@H]4CCN(Cc5ccccc5)C4)CC[C@@H]32)cc1` as the compound, how does the relative growth read?
The relative growth was inactive: 0.998.

Which relative growth does the source give for `C[C@H](CO)N1C[C@H](C)[C@@H](CN(C)C(=O)Nc2ccnc(N3CCOCC3)c2)OCc2cn(nn2)CCCC1=O` here?
Its relative growth is inactive: 0.972.

`C[C@@H]1CCCCO[C@H](CN(C)C)[C@@H](C)CN([C@H](C)CO)C(=O)c2cc(NC(=O)Nc3ccc(C(F)(F)F)cc3)ccc2O1` was tested. Which relative growth did it give?
Its relative growth is inactive: 0.974.

For `C[C@H](CO)N1C[C@H](C)[C@@H](CN(C)C(=O)Cc2ccccn2)Oc2ncc(-c3cccc(C(=O)N(C)C)c3)cc2C1=O`, which relative growth is on record?
Its relative growth is inactive: 0.971.

Which relative growth does the source give for `C[C@H](O)C#Cc1ccc2c(c1)O[C@H](CN(C)C(=O)Cc1ccccn1)[C@H](C)CN([C@H](C)CO)S2(=O)=O` here?
The relative growth was inactive: 0.989.

How did the relative growth turn out when `C[C@@H]1CN([C@@H](C)CO)C(=O)Cc2cc(NS(=O)(=O)c3ccc(Cl)cc3)ccc2O[C@@H]1CN(C)Cc1ccc(Oc2ccccc2)cc1` was run?
Its relative growth is inactive: 0.989.

With `CCCNC(=O)N1C[C@H](O)COC[C@@H]2O[C@H](CC(=O)N3CCOCC3)CC[C@H]21` as the compound, how does the relative growth read?
The relative growth was inactive: 0.974.

With `C[C@@H]1CCCCO[C@H](CN(C)Cc2ccc3c(c2)OCO3)[C@@H](C)CN([C@H](C)CO)C(=O)c2cc(NS(=O)(=O)c3cccs3)ccc2O1` as the compound, how does the relative growth read?
The relative growth was inactive: 1.

Which relative growth does the source give for `Nc1nc(=O)n([C@@H]2O[C@H](CO)[C@@H](O)[C@@H]2F)cc1I` here?
Its relative growth is inactive: 0.614.

`C[C@H]1CN([C@@H](C)CO)C(=O)Cc2cc(NS(=O)(=O)c3cccs3)ccc2O[C@@H]1CN(C)C(=O)Nc1cccc2ccccc12` was tested. Which relative growth did it give?
The relative growth was inactive: 1.

`C[C@@H]1CCCCO[C@H](CN(C)Cc2ccc(C(F)(F)F)cc2)[C@H](C)CN([C@@H](C)CO)C(=O)c2cc(NC(=O)NC3CCCCC3)ccc2O1` was tested. Which relative growth did it give?
Its relative growth is inactive: 0.971.

Which relative growth does the source give for `C[C@@H]1CN([C@@H](C)CO)C(=O)c2cccc(NC(=O)c3ccc(-c4nccs4)cc3)c2O[C@@H]1CN(C)S(=O)(=O)c1ccc(Cl)cc1` here?
Its relative growth is inactive: 1.02.

Which relative growth does the source give for `O=C(NC[C@H]1CCCO1)c1ccc[nH]1` here?
The relative growth was inactive: 1.04.

How did the relative growth turn out when `C[C@@H]1CN([C@@H](C)CO)C(=O)c2cc(NC(=O)Nc3ccc(F)cc3)ccc2O[C@@H]1CN(C)Cc1ccc(C(=O)Nc2ccccc2N)cc1` was run?
The relative growth was inactive: 1.01.

With `CC(=O)c1ccc(S(=O)(=O)N2[C@@H]3CC[C@@H](C3)[C@H]2c2nc3cccc(OCc4ccc(F)cc4)c3[nH]2)cc1` as the compound, how does the relative growth read?
The relative growth was inactive: 0.99.

For `CC(C)N1C[C@H](C)[C@@H](CN(C)Cc2ccc(Oc3ccccc3)cc2)Oc2c(NC(=O)c3ccccn3)cccc2C1=O`, which relative growth is on record?
The relative growth was inactive: 1.03.

`C[C@@H]1CN([C@@H](C)CO)S(=O)(=O)c2ccc(C3=CCCCC3)cc2O[C@@H]1CN(C)Cc1cncnc1` was tested. Which relative growth did it give?
Its relative growth is inactive: 1.

With `C[C@@H]1CN([C@H](C)CO)C(=O)Cc2cc(NC(=O)Nc3ccc(F)cc3)ccc2O[C@H]1CN(C)CC1CCCCC1` as the compound, how does the relative growth read?
Its relative growth is inactive: 1.06.

Which relative growth does the source give for `C[C@@H]1CN([C@@H](C)CO)C(=O)c2cccc(NS(=O)(=O)c3ccccc3)c2O[C@H]1CN(C)S(=O)(=O)c1ccccc1` here?
Its relative growth is inactive: 1.01.

Which relative growth does the source give for `C[C@@H]1CN([C@H](C)CO)C(=O)Cc2cc(NC(=O)Nc3ccc4c(c3)OCO4)ccc2O[C@@H]1CN(C)Cc1ccc(Cl)c(Cl)c1` here?
Its relative growth is inactive: 1.

For `C=CC[C@@H](CC(=O)N[C@H](CO)Cc1ccccc1)C(=O)N[C@H](COC(=O)[C@@H](CC=C)Cc1ccc(F)cc1)Cc1c[nH]c2ccccc12`, which relative growth is on record?
Its relative growth is inactive: 1.02.

`O=C([O-])C(O)C(O)C(O)C(O)C(O)CO.O=C([O-])C(O)C(O)C(O)C(O)C(O)CO.[Ca+2]` (configuration not stated) was tested. Which relative growth did it give?
Its relative growth is inactive: 1.13.

How did the relative growth turn out when `CC(C)NC(=O)N(C)C[C@@H]1OCCCC[C@H](C)Oc2ccc(NC(=O)Nc3ccccc3)cc2C(=O)N([C@H](C)CO)C[C@@H]1C` was run?
The relative growth was inactive: 0.995.

Which relative growth does the source give for `C[C@@H]1CN([C@@H](C)CO)C(=O)c2cc(NC(=O)Cc3ccccc3)ccc2O[C@H]1CN(C)S(=O)(=O)c1cn(C)cn1` here?
Its relative growth is inactive: 0.98.

For `C[C@@H]1CN([C@@H](C)CO)C(=O)c2cc(NC(=O)CCCN(C)C)ccc2O[C@H]1CN(C)C(=O)NC1CCCCC1`, which relative growth is on record?
Its relative growth is inactive: 1.01.

For `C[C@@H]1CN([C@H](C)CO)C(=O)Cc2cc(NC(=O)CCCCCC(=O)Nc3ccccc3N)ccc2O[C@@H]1CN(C)S(=O)(=O)c1cn(C)cn1`, which relative growth is on record?
Its relative growth is inactive: 1.

With `C[C@H]1CN([C@@H](C)CO)C(=O)c2cccc(NS(=O)(=O)c3cn(C)cn3)c2O[C@@H]1CN(C)C(=O)Nc1ccc(F)cc1` as the compound, how does the relative growth read?
The relative growth was inactive: 0.988.
